Results reported in PubChem BioAssay AID1347071 (National Center for Advancing Translational Sciences (NCATS), 2019).
The campaign covered roughly 410,000 compounds. About 260 (0.063%) were called active. Inconclusive means that the source gave no clear call. Such entries were picked first, then a sample of the others. Calls follow the shape of the dose curve; as a rule, active = well fitted activation curve with a large enough effect; inconclusive = small, poorly fitted or top-dose-only effect; inactive = no such curve, though single readings can be large or run the other way. Potencies of inconclusive entries are left out as doubtful fits.

assay: qHTS for compounds that reverse cellular toxicity of Amyloid beta (A-beta) peptide in yeast: Primary Screen; details: yeast expressing A-beta42, growth rescue, OD600, 48 h; growth rescue: at 46.1 µM (top of the series), 0% DMSO, 100% iron-clioquinol control; also: nearly all actives have a fitted effect of over 55% in size
In short: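 Yeast A-beta toxicity model in growth medium with pinned compounds, 48 h at 30 C; growth read as absorbance at 600 nm. Normalized to FeCl3/clioquinol equimolar mix (positive) and DMSO (negative).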
Potency is read from the fitted curve at half-maximal effect; tags tell the direction and shape of the fitted curve.

Compound | growth rescue | Potency
COc1ccc(OC)c(Nc2ncnc3sccc23)c1 | inactive: -10.3% | 
O=C(Nc1ccc2snnc2c1)Nc1cccc2ccccc12 | inactive: -0.053% | 
S=C(NCc1ccc(Cl)cc1)Nc1ccccc1 |  | active: 12.6 µM
CN(C)S(=O)(=O)c1ccc(C(=O)Nc2nc(-c3cc4ccccc4o3)cs2)cc1 | inactive: 1.61% | 
CCOc1ccc(-c2c(C(=O)N/N=C/C3CCCCC3)nnn2-c2nonc2N)cc1 |  | inconclusive [activator, single point]
Cc1ccc(-n2nc(C)c3c(C(F)(F)F)cc(-c4cccnc4)nc32)cc1C | inactive: -12.8% | 
CCc1ccc(NC(=O)CC2C(=O)N(c3ccc(F)cc3)C(=O)N2Cc2ccc(F)cc2)cc1 (centres undefined) | inactive: -1.6% | 
Cc1ccc(NC(=S)Nc2ccc(F)cc2)cc1C |  | inconclusive [activator, single point]
CCOC(=O)c1ccc(N=C2SC(C(=O)Nc3ccccc3)CC(=O)N2C)cc1 (centres undefined) | inactive: -3.93% | 
Cc1ccc(-c2cc(C(=O)N3CCc4ccccc4C3)no2)cc1 |  | inconclusive [activator, single point]
COc1ccc(NC(=O)CNc2cc(C)ccc2C)cc1S(=O)(=O)N1CCOCC1 | inactive: 7.39% | 
CCOc1ccc(NC(=S)N(CCOC)C(C)c2ccco2)cc1 (centres undefined) |  | inconclusive [activator, single point]
CCOc1cccc(OCCOCCNC(C)(C)C)c1 | inactive: 5.84% | 
O=C1/C(=C\c2ccco2)NC(=S)N1c1ccccc1 |  | inconclusive [activator, single point]
CCC1CN(C(=O)N2CCC(C(=O)NCc3cccc(F)c3)CC2)c2cc(C)ccc2O1 (centres undefined) |  | inconclusive [activator, single point]
O=S(=O)(Cc1cc(NCc2ccccc2)nc(-c2ccccn2)n1)c1ccccc1 |  | inconclusive [activator, partial curve, poor fit]
S=C(NN=Cc1ccccn1)N(Cc1ccccn1)Cc1ccccn1 |  | inconclusive [activator, partial curve, poor fit]
COc1cc2c(cc1OC)C(COc1cc(C)cc(C)c1)N(C(=O)C(C)(C)C)CC2 (centres undefined) | inactive: -6.14% | 
Cc1oc(-c2cccc(Cl)c2)nc1Cn1c(SCc2ccc(F)cc2)nc2cccnc21 |  | inconclusive [activator, partial curve, poor fit]
Cc1nnc(NC(=O)C23CC4CC(C)(CC(C)(C4)C2)C3)s1 |  | inconclusive [activator, partial curve]
CC1Nc2ncnc(N3CCN(c4ccccc4)CC3)c2N(Cc2ccc(Br)cc2)C1=O (centres undefined) |  | inconclusive [activator, partial curve]
CCOc1cccc(NC(=O)C2CC(=O)N(C)C(=Nc3ccccc3)S2)c1 (centres undefined) |  | inconclusive [activator, single point]
O=C(Nc1ccc2oc(-c3ccccc3Cl)nc2c1)c1ncn[nH]1 | inactive: -0.826% | 

Compound | growth rescue | Potency
COC(=O)[C@]1(CC(C)C)N[C@H](c2ccc(SC3CCCCC3)cc2)[C@@H]2C(=O)N(C)C(=O)[C@@H]21 |  | inconclusive [activator, single point]
Cc1cc(C)c(C#N)c(SCc2ccc([N+](=O)[O-])cc2)n1 | inactive: 0.578% | 
O=C(O)CCc1nc2cc3ccccc3cc2[nH]1 |  | inconclusive [activator, single point]
CCN1CCN(C(=O)Cn2ncc3c4ccccc4n(Cc4c(C)cc(C)cc4C)c3c2=O)CC1 | inactive: -0.103% | 
CCCCOc1cccc(C2c3c(-c4cc(C)ccc4O)n[nH]c3C(=O)N2CCOC)c1 (centres undefined) |  | inconclusive [activator, partial curve, poor fit]
Nc1nonc1OCCOCCOCCOc1nonc1N | inactive: -7.79% | 
Cc1ccc(CNC(=O)C2CCN(C(=O)N3CC(C)Oc4ccc(Cl)cc43)CC2)cc1 (centres undefined) |  | inconclusive [activator, single point]
Cc1cc(C)cc(NC(=O)C(C)N2Cc3ccccc3C2=O)c1 (centres undefined) | inactive: 3.04% | 
CCOC(=O)C(NC(=O)C1C(C)N1S(=O)(=O)c1ccc(C)cc1)C(=O)OCC (centres undefined) |  | inconclusive [activator, partial curve, poor fit]
CCN(CC)CCOC(=O)c1ccc(N/C=C(/C#N)c2nc(-c3cc4ccccc4oc3=O)cs2)cc1 | inactive: -11.7% | 
O=[N+]([O-])c1ccccc1/C=N/Nc1nnc(-c2ccccc2)c(-c2ccccc2)n1 | inactive: -6.44% | 
OCCN1c2ccccc2CCc2ccccc21 |  | inconclusive [activator, single point]
Cn1cccc1C(=O)OCC(=O)c1c[nH]c2ccccc12 |  | inconclusive [activator, single point]
O=C(NN=C(c1ccccc1)c1ccccn1)c1ccccc1 | inactive: -55.4% | 
COC(=O)Cc1ccc(NC(=S)Nc2ccccn2)cc1 |  | inconclusive [activator, single point]
O=C(Cc1coc2ccc3ccccc3c12)Nc1nccs1 |  | inconclusive [activator, full curve, poor fit]
COc1ccc(C(C(=O)NCCC(C)C)N(CCCO)C(=O)c2snc(C(N)=O)c2N)cc1OC (centres undefined) |  | inconclusive [activator, full curve, poor fit]
CCOC(=O)c1sc2nc(C)[nH]c(=S)c2c1C |  | inconclusive [activator, partial curve, poor fit]
COc1ccccc1NC(=O)CC(=O)CSc1nnc(-c2ccc(C)cc2)n1-c1ccccc1 |  | inconclusive [activator, partial curve, poor fit]
Cc1cc(C)c(-c2c(N)cc(Br)cc2Br)c(N)c1 |  | inconclusive [activator, partial curve, poor fit]
CCc1c(C)nc2ncnn2c1NC1CCCc2ccccc21 (centres undefined) |  | active: 12.6 µM
Cc1cc(C)cc(NC(=O)c2oc3ccccc3c2COc2ccccc2)c1 |  | inconclusive [activator, full curve]
Cc1ccc(NC(=O)CSc2ncc(S(=O)(=O)c3ccccc3)c(=O)[nH]2)cc1C | inactive: 0.964% | 

Compound | growth rescue | Potency
Cc1ccc(OCC(=O)OCc2c(C)noc2C)cc1C |  | inconclusive [activator, partial curve, poor fit]
CCOC(=O)c1ccc(N2C(=O)c3n[nH]c(-c4ccco4)c3C2c2ccccc2OC)cc1 (centres undefined) | inactive: -11.1% | 
N#Cc1cc([N+](=O)[O-])ccc1NC(=O)COC(=O)CC1CCCC1 |  | inconclusive [activator, single point]
O=C(COc1ccccc1)Nc1nnc(-c2ccco2)o1 | inactive: 26.8% | 
CN(c1ccc(C(=O)NCc2ccc3c(c2)OCO3)cc1)S(C)(=O)=O |  | inconclusive [activator, partial curve, poor fit]
COc1ccccc1C1/C(=C(/O)c2ccccc2)C(=O)C(=O)N1CC(C)O (centres undefined) |  | inconclusive [activator, partial curve, poor fit]
COc1ccc(NC(=O)/C(C#N)=C/c2cccnc2)c(OC)c1 |  | inconclusive [activator, partial curve, poor fit]
COCCN(C(=S)Nc1ccc(C)c(C)c1)C(C)c1ccco1 (centres undefined) |  | inconclusive [activator, single point]
COc1cccc(NC(=S)NCCC(c2ccccc2)c2ccccc2)c1 |  | inconclusive [activator, partial curve]
COc1cc(OC)cc(-c2sc3ccc(OC)cc3c2C#CCCO)c1 | inactive: 0.0518% | 
Cc1cc(C)c(C#N)c(Nc2ccccc2Cl)n1 |  | inconclusive [activator, partial curve, poor fit]
CC(c1ccccc1)C1CC(=O)N(Cc2ccccc2)C1=O (centres undefined) |  | inconclusive [activator, single point]
CCn1cc([N+](=O)[O-])c(C(=O)N2CCN(C(=O)c3ccco3)CC2)n1 |  | inconclusive [activator, partial curve, poor fit]
CCOC(=O)[C@]12CCCC=C1N(Cc1ccc(Cl)cc1Cl)C(=O)[C@H](CC(=O)NCC13CC4CC(CC(C4)C1)C3)C2 | inactive: -3.14% | 
Cc1ccc(OCc2n[nH]c(=S)n2-c2ccc(Cl)cc2)cc1 |  | inconclusive [activator, single point]
CCOc1ccc(NC(=S)NC(=O)C2CCCC2)cc1 |  | inconclusive [activator, single point]
Cc1ccc(S(=O)(=O)/N=C2\C=C(NS(=O)(=O)c3ccccc3)C(=O)c3ccccc32)cc1 |  | inconclusive [activator, full curve, poor fit]
CCOC(=O)CN1C(=O)C(C)(C)Oc2ccc(C(=O)Nc3ccccc3OC)cc21 |  | inconclusive [activator, partial curve, poor fit]
OC(c1cccc(Cl)c1)c1nc(-c2csc3ccccc23)cs1 (centres undefined) |  | inconclusive [activator, single point]
COc1ccc(CN(C)C(=S)Nc2ccc(Cl)cc2)cc1 |  | active: 11.2 µM
N/C(Cc1ccc([N+](=O)[O-])cc1)=N\OC(=O)Cc1ccccc1 | inactive: -16.4% | 
COc1ccc(C(C)(O)c2nc(-c3ccccc3OC)cs2)cc1 (centres undefined) |  | inconclusive [activator, partial curve, poor fit]
COc1ccc2oc(=Nc3cc(F)ccc3F)c(C(N)=O)cc2c1 |  | inconclusive [activator, full curve]
